{"source": "the supplement of paper PMC9446081", "note": "About 220 (0.56%) of roughly 39,000 compounds showed activity. Some of the results follow.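 Note: static incubation at 37 °C against the wild-type strain, values averaged over two biological replicates.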", "data": [{"system": "Escherichia coli K-12 BW25113", "test": "relative growth (OD600 normalised to plate interquartile mean) (fraction); higher = less growth inhibition, active = 0.2 or less", "conditions": "50 µM; LB; incubation time: overnight (16-24 h)", "values": [{"smiles": "CCCc1nc2c(C)cc(-c3nc4ccccc4n3C)cc2n1Cc1ccc(-c2ccccc2C(=O)O)cc1", "relative growth": "inactive: 0.907"}, {"smiles": "C[C@@H]1CCCCO[C@H](CN(C)Cc2ccncc2)[C@H](C)CN([C@@H](C)CO)C(=O)c2cc(NC(=O)Nc3ccc(F)cc3)ccc2O1", "relative growth": "inactive: 0.995"}, {"smiles": "C[C@@H]1CN([C@H](C)CO)C(=O)Cc2cc(NC(=O)CCN3CCOCC3)ccc2O[C@@H]1CN(C)CC1CCCCC1", "relative growth": "inactive: 1.01"}, {"smiles": "C[C@@H]1CN([C@H](C)CO)C(=O)Cc2cc(NC(=O)Cc3cn(C)c4ccccc34)ccc2O[C@H]1CN(C)Cc1ccc(Oc2ccccc2)cc1", "relative growth": "inactive: 1.01"}, {"smiles": "C[C@H]1CCCCO[C@@H](CN(C)C(=O)Nc2ccccc2)[C@@H](C)CN([C@@H](C)CO)C(=O)c2cc(NC(=O)Cc3ccccc3)ccc2O1", "relative growth": "inactive: 0.993"}, {"smiles": "Cc1noc(C)c1NC(=O)Nc1cccc2c1O[C@H](CN(C)C(=O)Nc1ccc(C(F)(F)F)cc1)[C@H](C)CN([C@@H](C)CO)C2=O", "relative growth": "inactive: 0.972"}, {"smiles": "C[C@H](CO)N1C[C@H](C)[C@H](CN(C)C(=O)NC2CCCCC2)Oc2ccc(NC(=O)Nc3ccc(C(F)(F)F)cc3)cc2C1=O", "relative growth": "inactive: 0.999"}, {"smiles": "C[C@@H]1CN([C@@H](C)CO)C(=O)c2cc(NC(=O)Nc3cccc4ccccc34)ccc2O[C@H]1CN(C)Cc1ccc(Oc2ccccc2)cc1", "relative growth": "inactive: 1.04"}, {"smiles": "C[C@@H]1CN([C@H](C)CO)C(=O)Cc2cc(NC(=O)CCCCCC(=O)Nc3ccccc3N)ccc2O[C@@H]1CN(C)Cc1ccccc1", "relative growth": "inactive: 1"}, {"smiles": "Cn1[nH]cc2c(=O)cccc1-2", "relative growth": "inactive: 0.866"}, {"smiles": "CC(C)NC(=O)Nc1cccc2c1O[C@H](CN(C)S(=O)(=O)c1ccc(F)cc1)[C@H](C)CN([C@H](C)CO)C2=O", "relative growth": "inactive: 1"}, {"smiles": "C[C@H]1CCCCO[C@@H](CN(C)CC2CCCCC2)[C@@H](C)CN([C@@H](C)CO)C(=O)c2cc(NC(=O)C3CCCCC3)ccc2O1", "relative growth": "inactive: 0.972"}, {"smiles": "C[C@@H]1CN([C@H](C)CO)C(=O)c2cccc(NC(=O)Nc3ccc(C(F)(F)F)cc3)c2O[C@H]1CN(C)Cc1ccncc1", "relative growth": "inactive: 0.992"}, {"smiles": "C[C@@H]1CN([C@H](C)CO)C(=O)c2cccc(NS(=O)(=O)c3cccs3)c2O[C@H]1CN(C)Cc1ccc(Cl)c(Cl)c1", "relative growth": "inactive: 0.994"}, {"smiles": "C[C@@H]1CN([C@H](C)CO)C(=O)Cc2cc(NC(=O)C3CC3)ccc2O[C@@H]1CN(C)Cc1ccc(Oc2ccccc2)cc1", "relative growth": "inactive: 0.984"}, {"smiles": "CC(C)NC(=O)N(C)C[C@@H]1Oc2ccc(NC(=O)Cn3cnnn3)cc2C(=O)N([C@@H](C)CO)C[C@@H]1C", "relative growth": "inactive: 0.985"}, {"smiles": "C[C@H](CO)N1C[C@H](C)[C@@H](CN(C)C(=O)Nc2cccc3ccccc23)Oc2ccc(NC(=O)Nc3cccc4ccccc34)cc2CC1=O", "relative growth": "inactive: 1.01"}, {"smiles": "O=C(C[C@H]1CC[C@H]2[C@@H](COC[C@@H](O)CN2S(=O)(=O)c2ccccc2)O1)N[C@H]1CCN(Cc2ccccc2)C1", "relative growth": "inactive: 1"}, {"smiles": "C[C@@H]1CN([C@@H](C)CO)C(=O)c2cc(NC(=O)Nc3ccc4c(c3)OCO4)ccc2O[C@@H](C)CCCCO[C@H]1CN(C)Cc1ccncc1", "relative growth": "inactive: 1"}, {"smiles": "C[C@@H]1CCCCO[C@@H](CN(C)Cc2ccc(C(=O)O)cc2)[C@@H](C)CN([C@H](C)CO)C(=O)c2cc(NS(=O)(=O)c3cccs3)ccc2O1", "relative growth": "inactive: 0.925"}, {"smiles": "N=C(N)c1ccc2nc(-c3cc(CC(=O)N[C@@H](CC(=O)O)C(=O)O)cc(-c4cc(S(N)(=O)=O)ccc4O)c3O)[nH]c2c1", "relative growth": "inactive: 1"}, {"smiles": "C[C@@H]1CN([C@@H](C)CO)C(=O)Cc2cc(NS(=O)(=O)c3cccs3)ccc2O[C@@H]1CN(C)Cc1ccc(Cl)c(Cl)c1", "relative growth": "inactive: 1"}, {"smiles": "NC(C(=O)NC1C(=O)N2C(C(=O)O)=C(Cl)CSC12)c1ccccc1", "note": "(stereo not given)", "relative growth": "active: 0.0491"}, {"smiles": "COc1ccc(CN(C)C[C@@H]2OCCCC[C@H](C)Oc3ccc(NC(=O)Cc4ccccc4)cc3C(=O)N([C@@H](C)CO)C[C@H]2C)cc1", "relative growth": "inactive: 1.02"}, {"smiles": "C[C@@H]1CN([C@H](C)CO)C(=O)c2cc(NC(=O)Cc3ccccc3)ccc2O[C@@H](C)CCCCO[C@H]1CN(C)C(=O)Nc1ccc(F)cc1", "relative growth": "inactive: 0.994"}, {"smiles": "CO[C@@H]1CN(C)C(=O)c2cc(NC(=O)C3CC3)ccc2OC[C@H](C)N(C(=O)CN2CCOCC2)C[C@@H]1C", "relative growth": "inactive: 0.991"}, {"smiles": "O=C(C[C@@H]1CC[C@@H]2[C@H](COC[C@H](O)CN2S(=O)(=O)c2ccccc2)O1)NCc1ccncn1", "relative growth": "inactive: 0.979"}, {"smiles": "C[C@@H]1CN([C@@H](C)CO)S(=O)(=O)c2ccc(-c3ccc(C(=O)N(C)C)cc3)cc2O[C@H]1CN(C)C(=O)C1CCC1", "relative growth": "inactive: 0.999"}, {"smiles": "CC(C)(CO)c1cc2cc(NC(=O)C3(c4ccc5c(c4)OC(F)(F)O5)CC3)c(F)cc2n1C[C@@H](O)CO", "relative growth": "inactive: 0.96"}, {"smiles": "Cc1ccc(Cn2c3ccccc3c3ccccc32)cc1", "relative growth": "inactive: 1.02"}, {"smiles": "COC(=O)C1C(O)CCC2CN3CCc4c([nH]c5ccccc45)C3CC21.Cl", "note": "(stereo not given)", "relative growth": "inactive: 1.1"}, {"smiles": "C[C@@H]1CN([C@@H](C)CO)S(=O)(=O)c2ccc(C#Cc3cccnc3)cc2O[C@@H]1CN(C)C(=O)Nc1ccc2c(c1)OCO2", "relative growth": "inactive: 0.95"}, {"smiles": "O=C(N[C@H](c1ccc(Cl)cc1)c1ccccn1)C1CCN(CCOc2ccc(Cl)cc2Cl)CC1", "relative growth": "inactive: 0.956"}, {"smiles": "CC1(C)S[C@H]2[C@@H](NC(=O)[C@@H](NC(=O)N3CCN(S(C)(=O)=O)C3=O)c3ccccc3)C(=O)N2[C@@H]1C(=O)O", "relative growth": "inactive: 0.237"}, {"smiles": "C[C@H]1CN([C@@H](C)CO)C(=O)c2cc(NS(=O)(=O)c3cn(C)cn3)ccc2O[C@@H]1CN(C)Cc1ccc(C(=O)O)cc1", "relative growth": "inactive: 1.04"}, {"smiles": "Cc1ccc(S[C@]2(C(=O)NCCN3CCOCC3)CC(=O)N(Cc3cc(C(F)(F)F)cc(C(F)(F)F)c3)[C@@H]2c2ccc(CO)cc2I)cc1", "relative growth": "inactive: 0.97"}, {"smiles": "C[C@H](CO)N1C[C@H](C)[C@@H](CN(C)Cc2ccc(F)cc2)Oc2cc(C#CCN(C)C)ccc2S1(=O)=O", "relative growth": "inactive: 1.01"}, {"smiles": "C[C@H](CO)N1C[C@H](C)[C@H](CN(C)S(=O)(=O)c2cccc(F)c2)Oc2ncc(C#CCN(C)C)cc2C1=O", "relative growth": "inactive: 0.971"}, {"smiles": "CC(C)[C@H]1CC[C@@H](C)C[C@@H]1NC(=O)c1cccc2ccccc12", "relative growth": "inactive: 1.03"}, {"smiles": "Cc1ccc(C(N)=O)cc1N(C)S(C)(=O)=O", "relative growth": "inactive: 1.02"}, {"smiles": "C[C@H](CO)N1C[C@H](C)[C@@H](CN(C)Cc2ccc(-c3ccccc3)cc2)Oc2ccc(NC(=O)C3CCCCC3)cc2CC1=O", "relative growth": "inactive: 0.984"}, {"smiles": "C[C@@H]1CCCCO[C@@H](CN(C)CC2CCCCC2)[C@@H](C)CN([C@@H](C)CO)C(=O)c2cc(NC(=O)CCC(F)(F)F)ccc2O1", "relative growth": "inactive: 0.982"}, {"smiles": "CCCCC1C(=O)N(c2ccccc2)N(c2ccccc2)C1=O", "relative growth": "inactive: 1.05"}, {"smiles": "C[C@H](CO)N1C[C@H](C)[C@@H](CN(C)C(=O)Nc2ccc(F)cc2)Oc2c(NC(=O)c3cnccn3)cccc2C1=O", "relative growth": "inactive: 1.01"}, {"smiles": "C[C@@H]1CN([C@H](C)CO)C(=O)c2cc(NC(=O)Cc3cn(C)c4ccccc34)ccc2O[C@H]1CN(C)S(C)(=O)=O", "relative growth": "inactive: 0.991"}, {"smiles": "C[C@@H]1O[C@@H](Oc2c(-c3cc(O)c(O)c(O)c3)oc3cc(O)cc(O)c3c2=O)[C@H](O)[C@H](O)[C@H]1O", "relative growth": "inactive: 1.03"}, {"smiles": "Cc1noc(C)c1NC(=O)N(C)C[C@H]1Oc2c(NS(=O)(=O)c3cn(C)cn3)cccc2C(=O)N([C@@H](C)CO)C[C@@H]1C", "relative growth": "inactive: 1.03"}, {"smiles": "COc1ccc(NC(=O)N(C)C[C@@H]2OCc3cnnn3CCCC(=O)N([C@H](C)CO)C[C@@H]2C)c(OC)c1", "relative growth": "inactive: 1.02"}, {"smiles": "O=C(CN1CCOCC1)NCC[C@H]1CC[C@H](NS(=O)(=O)c2ccc(Cl)cc2)[C@H](CO)O1", "relative growth": "inactive: 1.01"}, {"smiles": "CCc1nc2ccc(C(=O)Nc3cccc(OCC(=O)N(C)C)c3)cn2c1N(C)C(=O)c1ccncc1", "relative growth": "inactive: 0.989"}, {"smiles": "C=CCOC(=O)C1=C[C@@H](c2cn(C(C)=O)c3ccccc23)C[C@@H](OCc2ccc(COC(=O)NCCCCCC(=O)NO)cc2)O1", "relative growth": "inactive: 0.984"}, {"smiles": "CCCNC(=O)[C@@H]1[C@@H](CO)[C@@H]2Cn3c(ccc(-c4ccccc4OC)c3=O)[C@@H]2N1S(C)(=O)=O", "relative growth": "inactive: 1"}, {"smiles": "C[C@@H]1CN([C@H](C)CO)C(=O)c2cc(NC(=O)Nc3ccc(C(F)(F)F)cc3)ccc2O[C@@H](C)CCCCO[C@H]1CN(C)C", "relative growth": "inactive: 0.952"}, {"smiles": "Cc1noc(C)c1S(=O)(=O)Nc1ccc2c(c1)C(=O)N([C@H](C)CO)C[C@H](C)[C@H](CN(C)C(=O)Nc1cccc3ccccc13)OCCCC[C@@H](C)O2", "relative growth": "inactive: 0.996"}, {"smiles": "OCCNC(=S)NC1CCCC1", "relative growth": "inactive: 1.02"}, {"smiles": "Cc1ccc(S(=O)(=O)N(C)C[C@@H]2Oc3c(NC(=O)c4cc(C)nn4C)cccc3C(=O)N([C@@H](C)CO)C[C@H]2C)cc1", "relative growth": "inactive: 1.01"}, {"smiles": "Cc1ccc(S(=O)(=O)N(C)C[C@H]2OCCCC[C@@H](C)Oc3ccc(NC(=O)Nc4c(C)noc4C)cc3C(=O)N([C@@H](C)CO)C[C@H]2C)cc1", "relative growth": "inactive: 0.977"}, {"smiles": "C[C@H]1CCCCO[C@@H](CN(C)S(=O)(=O)c2ccccc2)[C@@H](C)CN([C@@H](C)CO)C(=O)c2cc(NC(=O)CCC(F)(F)F)ccc2O1", "relative growth": "inactive: 0.979"}, {"smiles": "COc1ccc(Cc2nn[nH]n2)cc1", "relative growth": "inactive: 1"}, {"smiles": "C[C@@H]1CN([C@H](C)CO)C(=O)c2cc(NS(=O)(=O)c3ccccc3)ccc2O[C@@H]1CN(C)Cc1ccc(Oc2ccccc2)cc1", "relative growth": "inactive: 0.997"}]}]}
